The supplement of paper PMC8728848
This is one part of the list.

Experiments:
Assay in all cases: glycan array binding signal (z-score within array); higher = stronger binding
Details in all cases: glycan notation: IUPAC condensed, linker removed
[1] = target: GlcNAc(b1-3)Gal(b1-4)GlcNAc(b1-3)Gal(b1-4)GlcNAc(b1-3)GalNAc
Summary of the method: (§1)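 Negative Z-scores can be read as non-binding. The Z-score is calculated within each array and then averaged across arrays of one protein sequence at different concentrations or buffers and across linkers. Arrays, 3228 in all, were curated from the Consortium for Functional Glycomics database and kept only where the protein sequence was available.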

[2] = target: GlcNAc(b1-3)Gal(b1-4)GlcNAc(b1-3)GalNAc
Summary of the method: as §1

[3] = target: GlcNAc(b1-3)Gal(b1-4)GlcNAc(b1-3)[GlcNAc(b1-3)Gal(b1-4)GlcNAc(b1-3)]GalNAc
Summary of the method: as §1

[4] = target: GlcNAc(b1-3)Gal(b1-4)GlcNAc(b1-6)[Gal(b1-3)]GalNAc
Summary of the method: as §1

[5] = target: GlcNAc(b1-3)Gal(b1-4)GlcNAc(b1-6)[GlcNAc(b1-3)Gal(b1-3)]GalNAc
Summary of the method: as §1

[6] = target: GlcNAc(b1-3)Gal(b1-4)GlcNAc(b1-6)[GlcNAc(b1-3)]Gal(b1-4)GlcNAc
Summary of the method: as §1

GlcNAc(b1-3)GalNAc = target: GlcNAc(b1-3)GalNAc
Summary of the method: as §1

GlcNAc(b1-3)Man = target: GlcNAc(b1-3)Man
Summary of the method: as §1

[7] = target: GlcNAc(b1-3)[GlcNAc(b1-4)][GlcNAc(b1-6)]GlcNAc
Summary of the method: as §1

[8] = target: GlcNAc(b1-3)[GlcNAc(b1-6)]Gal(b1-4)GlcNAc
Summary of the method: as §1

[9] = target: GlcNAc(b1-3)[GlcNAc(b1-6)]GalNAc
Summary of the method: as §1

[10] = target: GlcNAc(b1-4)Gal(b1-4)GlcNAc
Summary of the method: as §1

GlcNAc(b1-4)GlcNAc = target: GlcNAc(b1-4)GlcNAc
Summary of the method: as §1

[11] = target: GlcNAc(b1-4)GlcNAc(b1-4)GlcNAc
Summary of the method: as §1

[12] = target: GlcNAc(b1-4)GlcNAc(b1-4)GlcNAc(b1-4)GlcNAc(b1-4)GlcNAc
Summary of the method: as §1

[13] = target: GlcNAc(b1-4)GlcNAc(b1-4)GlcNAc(b1-4)GlcNAc(b1-4)GlcNAc(b1-4)GlcNAc
Summary of the method: as §1

[14] = target: GlcNAc(b1-4)[GlcNAc(b1-6)]GalNAc
Summary of the method: as §1

[15] = target: GlcNAc(b1-6)Gal(b1-4)GlcNAc
Summary of the method: as §1

GlcNAc(b1-6)GalNAc = target: GlcNAc(b1-6)GalNAc
Summary of the method: as §1

[16] = target: GlcNAc6S(b1-3)Gal(b1-4)GlcNAc
Summary of the method: as §1

Kdn(a2-3)Gal(b1-3)GalNAc = target: Kdn(a2-3)Gal(b1-3)GalNAc
Summary of the method: as §1

Kdn(a2-3)Gal(b1-3)GlcNAc = target: Kdn(a2-3)Gal(b1-3)GlcNAc
Summary of the method: as §1

Kdn(a2-3)Gal(b1-4)Glc = target: Kdn(a2-3)Gal(b1-4)Glc
Summary of the method: as §1

Kdn(a2-3)Gal(b1-4)GlcNAc = target: Kdn(a2-3)Gal(b1-4)GlcNAc
Summary of the method: as §1

[17] = target: Kdn(a2-3)Gal(b1-4)[Fuc(a1-3)]GlcNAc
Summary of the method: as §1

Kdn(a2-6)Gal(b1-4)GlcNAc = target: Kdn(a2-6)Gal(b1-4)GlcNAc
Summary of the method: as §1

[18] = target: Man(a1-2)Man(a1-2)Man(a1-3)Man
Summary of the method: as §1

[19] = target: Man(a1-2)Man(a1-2)Man(a1-6)[Man(a1-3)]Man
Summary of the method: as §1

Man(a1-2)Man(a1-3)Man = target: Man(a1-2)Man(a1-3)Man
Summary of the method: as §1

[20] = target: Man(a1-2)Man(a1-3)[Man(a1-2)Man(a1-6)]Man
Summary of the method: as §1

B1: BT3172pd (Bacteroides thetaiotaomicron) (protein)
chain: MLPLRAEHYYYKQISLKEGLPSNVRCILRDEQGFIWIGTKAGLGKFDGHQLKRYKHQANDPHSLLHNLIYQIAEDKQHNIWILTEKGIARYQQQSNNFTFPTDEEGNYITAYSFCLVPDGILFGGKDRIYKYSYKDSSLRLLQYFNANSFKITALSVWDSKTLLCCSRWTGLYLVDLQTGEHRRPPFDCGPEITSMITDSKNRIWIAPYSGGLRCYSRDGKLSASYTTHNSSLSNDIVLSLAEREEQLWIGTDGGGINILHPETGEISQLEYIPGRENYSLPANSILCLHNDYNNNVWAGSTCNGLISIREVSMKTYTDVVPGNDRGLSNGTVRSLYRQSPDSIWIGTDGGGINLFSPHTEKFTHYSSTWGDKVAFISGFTPGKLLISLFSKGVFVFNPATGEKQPFTIIDKETTTRLCNRGKSVNLYQNTPNTVLFLGDHIYQYHLKEKKFSTITEEEGKDIVGTLVPFDHQENLTYINDIKHIYELDDQTSRLKTVFECYTDTVISSVSHDEQGHFWIGSNFGLIHYDPVLKSRTLVPTNLFTEINMVLCDQKGKVWIGVDNMLFAYFIKEQKFVLFGESNGAIQNEYLPNARLVNEQGDAYIGGVKGMLRIDGQLLLNTSEMPELQLLDITINGESANHEWYNHPAKISVPWNSNISIRIMSREEDIFRQKIYRYQIEGLNNEYTESYNPELVIRSLLPGSYRIMASCTAKDGSWIPDQQVLELTVLPPWYRTHHHHHH
[1]
  glycan array binding signal (z-score): -0.204
[2]
  glycan array binding signal (z-score): -0.116
[3]
  glycan array binding signal (z-score): 0.209
[4]
  glycan array binding signal (z-score): 0.458
[5]
  glycan array binding signal (z-score): -0.493
[6]
  glycan array binding signal (z-score): -0.139
GlcNAc(b1-3)GalNAc
  glycan array binding signal (z-score): 3.09
GlcNAc(b1-3)Man
  glycan array binding signal (z-score): 0.147
[7]
  glycan array binding signal (z-score): -0.262
[8]
  glycan array binding signal (z-score): 0.106
[9]
  glycan array binding signal (z-score): -0.217
[10]
  glycan array binding signal (z-score): -0.204
GlcNAc(b1-4)GlcNAc
  glycan array binding signal (z-score): -0.008
[11]
  glycan array binding signal (z-score): -1.4
[12]
  glycan array binding signal (z-score): -0.424
[13]
  glycan array binding signal (z-score): 0.402
[14]
  glycan array binding signal (z-score): -0.517
[15]
  glycan array binding signal (z-score): -0.207
GlcNAc(b1-6)GalNAc
  glycan array binding signal (z-score): -1.19
[16]
  glycan array binding signal (z-score): -0.266
Kdn(a2-3)Gal(b1-3)GalNAc
  glycan array binding signal (z-score): 0.378
Kdn(a2-3)Gal(b1-3)GlcNAc
  glycan array binding signal (z-score): -0.344
Kdn(a2-3)Gal(b1-4)Glc
  glycan array binding signal (z-score): -1.59
Kdn(a2-3)Gal(b1-4)GlcNAc
  glycan array binding signal (z-score): 2.27
[17]
  glycan array binding signal (z-score): 0.137
Kdn(a2-6)Gal(b1-4)GlcNAc
  glycan array binding signal (z-score): 0.875
[18]
  glycan array binding signal (z-score): 0.715
[19]
  glycan array binding signal (z-score): -0.454
Man(a1-2)Man(a1-3)Man
  glycan array binding signal (z-score): 0.341
[20]
  glycan array binding signal (z-score): -0.429
